Consider 85 compounds from ChEMBL document CHEMBL4888484, “Replenishing the malaria drug discovery pipeline: Screening and hit evaluation of the MMV Hit Generation Library 1 (HGL1) against asexual blood stage Plasmodium falciparum ,using a nano luciferase reporter read-out” (2022).

Each structure is given as a SMILES string. Screen size: about 150,000 compounds; about 540 (0.36%) showed an effect of 50% or more. This is one part of the list.

The assay relates to Plasmodium falciparum. As to the kind of experiment: Primary screen in NF54 nanoGlo assay, in single point, at 2uM, 72h; a lower Z score goes with more inhibition. Particulars: timepoint 72 hour. The format is functional, Erythrocyte.
For orientation: % Inhibition means the drop in the measured response relative to a control, in per cent. Consider `COCC(=O)Nc1cc(C(=O)N(C)C[C@H](C)CN2CCCC2)cc2nc(-c3ccccc3)n(C)c12`, for which the “% Inhibition” value is on record as -2% and the Z score was determined as 0.34.
In the same order, the values of `c1ccc(Oc2cccc([C@@H]3c4cccn4CCCN3Cc3ccco3)c2)cc1` are -4% and 0.52.
On the same counts, the results for `c1coc(-c2nnc(CN(CC3CCCO3)CC3CCCO3)o2)c1` (stereo not given) are -2% and 0.33.
On the same counts, the results for `C[C@@H](CNC(=O)NCc1nccc(C(F)(F)F)n1)N(C)C1CC1` are -2% and 0.21.
As to `CCn1cccc1-c1nc(C)c(C(=O)NCCc2ccc(Cl)cc2)s1`, the “% Inhibition” value was 0% and the Z score was -0.05.
On the same counts, the results for `CCN1CCC[C@](C)(C(=O)N2CCN(c3ccc4nccn4n3)CC2)C1` are -6% and 1.16.
On the same counts, the results for `c1csc(-c2cc(CN3CCC[C@H](Cn4cncn4)C3)no2)c1` are -10% and 1.31.
In the same order, the values of `Cc1cc(-n2cncn2)ccc1C(=O)N1CCC[C@@H]1COc1ccc(F)cc1` are -6% and 0.83.
Consider `CC(C)c1scnc1NC(=O)NC[C@](C)(O)c1cccc(F)c1`, for which the “% Inhibition” value is given as 8% and the Z score was -1.53.
On the same counts, the results for `COCCN(Cc1c(C)nn(-c2ccccc2)c1Oc1cccc(F)c1)C[C@H](O)CN1CCOCC1` are -4% and 0.57.
On the same counts, the results for `C[C@]1(CO)C2CC[C@@H](O)[C@@H](CC(=O)N3CCC[C@H]3CO)[C@]2(C)CC[C@H]1OC(=O)Nc1ccccc1` (stereo not given in full) are 1% and -0.15.
In the same order, the values of `OC[C@H]1C=C[C@@H](Nc2cnc3ccccc3n2)C1` are -4% and 0.41.
For the compound `O=C(c1ccc2ncsc2c1)N1CCC(n2cnc3ncccc3c2=O)CC1`, the “% Inhibition” value is -14% and the Z score stood at 2.42.
On the same counts, the results for `CN1CCC[C@H]1c1nc(C2CN(C(=O)CCC3CCCC3)C2)no1` are 9% and -1.03.
On the same counts, the results for `Cn1cc(Br)c(CNc2nnc(C3CCCCC3)o2)n1` are -1% and 0.09.
On to `CNC(=O)[C@H]1c2nnc(C)n2CCN1C(=O)Cc1cccc(F)c1`, for which the “% Inhibition” value is listed as -14% and the Z score came to 1.69.
On the same counts, the results for `CN1CCCN(C(=O)[C@H]2CC23CCN(Cc2cccs2)CC3)CC1` are -11% and 1.43.
In the same order, the values of `CCN(CC(=O)NCc1cccnc1-n1cnc2ccccc21)C1CC1` are -11% and 1.51.
For `Cc1ccccc1CNC(=O)[C@H]1CCCN(c2nc3ccc(Br)cc3[nH]2)C1`, the “% Inhibition” value is recorded as -3% and the Z score is reported as 0.57.
In the same order, the values of `CC(C)CC1(C(=O)NCc2nnc3n2CCC3)CCC1` are -8% and 0.8.
On the same counts, the results for `CC(=O)N[C@H](c1ccc(F)cc1F)C(C)(C)C` are 7% and -0.89.
On the same counts, the results for `CN1CCN(C(C)(C)CNC(=O)CCc2cn[nH]c2)CC1` are 8% and -1.16.
For the compound `Cc1cc(Cl)ccc1CN(C)CC(C)(C)S(C)(=O)=O`, the “% Inhibition” value was -9% and the Z score is reported as 0.82.
In the same order, the values of `Cc1cccc(Cl)c1S(=O)(=O)NC[C@H](O)CN(C)C` are -3% and 0.41.
In the same order, the values of `CCOc1ncccc1-c1ccc(C(N)=O)cn1` are -5% and 0.68.
In the same order, the values of `CCCc1nnc(C(=O)N2CCC[C@@](CO)(CC(C)C)C2)o1` are 8% and -1.59.
As for `COCC1CCN(C(=O)C[C@H](C)C(=O)c2cccc(F)c2)CC1`, the “% Inhibition” value is reported as -11% and the Z score turned out to be 1.13.
In the same order, the values of `CCC(C)C(NC(=O)c1cc(C)c(F)cc1Cl)C(N)=O` (stereo not given) are -9% and 1.23.
In the same order, the values of `COc1cccc(NC(=O)Cn2nc3c(N4CCCC4)nccn3c2=O)c1` are 3% and -0.53.
On the same counts, the results for `Cc1n[nH]c(C)c1Cc1nc(CN2CCN(C)CC2)no1` are 5% and -0.66.
For `N#Cc1ccc(-c2ccc(Oc3nccnc3C#N)cc2)cc1`, the “% Inhibition” value is -14% and the Z score is on record as 2.24.
In the same order, the values of `Cc1nc2c(NC(=O)[C@H]3CCCO3)cccc2o1` are 12% and -1.44.
As for `CC1CN(CCNCc2csc(C(C)(C)C)n2)CC(C)O1` (stereo not given), the “% Inhibition” value is given as -18% and the Z score amounted to 2.09.
On the same counts, the results for `COc1ccc(C(=O)N2C[C@@H](O)C[C@H]2c2nnc3n2CCN(C(=O)C(C)C)C3)cn1` are -1% and 0.1.
In the same order, the values of `Cc1cc(C)c(C#N)c(N2CCC[C@H](c3nccn3CC3CC3)C2)n1` are -6% and 0.8.
On the same counts, the results for `O=C(NCc1cccc2nsnc12)C1(C(=O)NC2CC2)CCC1` are -6% and 0.69.
Regarding `CC(C(=O)Nc1ccc(N2CCOCC2)cc1)N1CCCC(C(=O)Nc2ccc(Cl)cn2)C1` (stereo not given), the “% Inhibition” value is on record as -17% and the Z score is 3.22.
In the same order, the values of `CC(=O)N(c1nc(CN(C)[C@H](c2ccccc2)C(F)(F)F)cs1)C1CC1` are -3% and 0.46.
In the same order, the values of `O=C(CCNc1ncccn1)N1CCN(Cc2ccc(-c3cccc(Cl)c3)s2)CC1` are -7% and 1.41.
On the same counts, the results for `O=C(NC1CCOC(c2cccnc2)C1)N1CCCc2ccccc2CC1` (stereo not given) are -8% and 1.28.
Consider `N#CCc1ccc(NCc2cnc3ccc(Br)cn23)cc1`, for which the “% Inhibition” value is on record as -10% and the Z score was determined as 0.93.
On the same counts, the results for `CC(C)(C)OC(=O)c1ccc(C#N)cc1` are -7% and 1.13.
In the same order, the values of `CCOc1ccc(-n2nnc(C)c2C(=O)N2CCC(C(N)=O)CC2)cc1` are -18% and 1.63.
On the same counts, the results for `O=C(c1ccccc1-c1ccccc1)N1CCc2ccccc2C1` are -8% and 1.08.
Regarding `CCN(C(=O)c1ccoc1C)[C@H]1CCS(=O)(=O)C1`, the “% Inhibition” value is on record as -4% and the Z score is given as 0.73.
In the same order, the values of `CC[C@H](NCC(=O)NC(=O)NC)C(C)(C)c1ccccc1` are -13% and 1.35.
On the same counts, the results for `CCOc1ccc(CNC(=O)C[C@H](C)S(=O)(=O)c2cc3c(cc2C)NC(=O)CO3)cc1OC` are -15% and 1.82.
`CCc1nccc(-c2nccn2Cc2csc(C)n2)n1`: the “% Inhibition” value is on record as -2% and the Z score is recorded as 0.47.
Take `Cc1cnc(NC(=O)c2sc(Nc3cc(Cl)ccc3F)nc2N)o1`: the “% Inhibition” value worked out at 5% and the Z score is recorded as -0.61.
On the same counts, the results for `COc1ccnc(-c2cccc(C(=O)N3CCCC4(CCOCC4)C3)c2)n1` are -13% and 2.14.
In the case of `O=C(c1ccncc1)N1C[C@H]2CC[C@@H](C1)N(C(=O)Cc1cccnc1)C2`, the “% Inhibition” value is recorded as -19% and the Z score came to 1.71.
Consider `CCCC(=O)OCc1ccnc(N(C)C)c1`, for which the “% Inhibition” value is reported as -8% and the Z score was determined as 0.67.
In the same order, the values of `Cc1cccc2c1OCC[C@@H]2NC(=O)Cn1cccc(C)c1=O` are -4% and 0.58.
On the same counts, the results for `CC1CCN(C(=O)C[C@@H]2C=CCC2)CC1` are -12% and 2.34.
On the same counts, the results for `CCC(CC)n1nc(C)cc1NC(=O)c1cc(-c2cnn(C)c2C)on1` are -4% and 0.52.
Take `O=C(NC1CCOCC1)NC(c1cccs1)c1cccs1`: the “% Inhibition” value was -5% and the Z score is given as 0.87.
On the same counts, the results for `CC[C@H]1CN(C(=O)N2CCC(C(=O)NCCCc3ccccc3)CC2)c2cc(C)ccc2O1` are 2% and -0.48.
In the same order, the values of `C=CCO[C@H]1[C@H](NC(=O)COC)c2ccccc2C12CCN(Cc1c(C)nn(C(C)C)c1C)CC2` are 11% and -1.44.
On the same counts, the results for `CCOc1cc(CO)ccc1OCC(=O)NC(C)(C)C` are -5% and 0.69.
As to `Cc1c(F)cccc1-n1nnc(C(=O)NC2CC2)c1C`, the “% Inhibition” value turned out to be 9% and the Z score was -1.1.
`Cc1nn(C)cc1-c1cc(-c2nnc(Nc3ccn(Cc4ccccc4Cl)n3)s2)no1`: the “% Inhibition” value was 37% and the Z score is listed as -5.42.
On the same counts, the results for `Cc1cc(NC(=O)N2C[C@@H]3CCC[C@]3(C(N)=O)C2)cn2ccnc12` are -2% and 0.21.
In the same order, the values of `Cc1c(Cl)cccc1OCC(=O)NCCc1ccc[nH]1` are -10% and 1.53.
On the same counts, the results for `COc1cc(CN2CC[C@H](c3nccc(C(F)(F)F)n3)C2)sn1` are 9% and -1.1.
For the compound `COC(=O)C1CCC(C(=O)N(C)C2CCCCCCC2)CC1` (stereo not given), the “% Inhibition” value came to 15% and the Z score is -1.35.
On the same counts, the results for `N#CCNC(=O)CCOc1ccccc1Br` are -3% and 0.33.
On the same counts, the results for `CCOC(=O)CN(C(=O)c1c2ccccc2nn1C)C(C)(C)C` are 8% and -0.83.
On the same counts, the results for `CN(C)CCN(C)C(=O)N[C@@H]1COC(C)(C)O[C@@H]1c1ccccc1` are -5% and 1.06.
With `COc1ccnc(NCc2ccc(N3CCOCC3)cc2)n1`, the “% Inhibition” value is recorded as 34% and the Z score was -4.65.
On the same counts, the results for `Cc1nccn1-c1ccc(-c2cccc3cccnc23)nn1` are -7% and 1.11.
Consider `O=C1CCN(Cc2cc3cc4c(cc3nc2-c2ccc(Cl)cc2)OCO4)CCN1`, for which the “% Inhibition” value is on record as 2% and the Z score was -0.18.
As to `CNC(=O)c1sc(N2CCO[C@@H](C)C2)nc1C`, the “% Inhibition” value is on record as -3% and the Z score is reported as 0.46.
Take `COc1cc(-c2nc3ccc(C(=O)NC[C@H]4CCCO4)cc3nc2-c2cc(OC)c(OC)c(OC)c2)cc(OC)c1OC`: the “% Inhibition” value is listed as -9% and the Z score turned out to be 1.04.
In the same order, the values of `Cc1ccc(O[C@H]2CCN(C(=O)Nc3ccc4c(c3)OCO4)C2)nc1` are -12% and 2.33.
On the same counts, the results for `Cc1cc(C)n(-c2ccc(CCNC(=O)NC3CCOCC3)cc2)n1` are 2% and -0.35.
Regarding `C[C@H]1c2cccn2CCN1Cc1nnsc1Cl`, the “% Inhibition” value is given as -10% and the Z score is listed as 1.56.
Take `Cc1nc(C)c(C(=O)N2CCC[C@H]2c2ncc(C)n2Cc2ccncc2)s1`: the “% Inhibition” value is on record as 1% and the Z score is -0.15.
In the same order, the values of `CN(C)C1CN(c2nccnc2C#N)C1` are 4% and -0.52.
`O=C(OCc1nc(-c2ccccc2)no1)c1cccnc1`: the “% Inhibition” value worked out at 28% and the Z score is -3.21.
On the same counts, the results for `CC(=O)c1ccc(Oc2nc(C)nc(N3CCCCC3)c2N)cc1` are 8% and -1.36.
On the same counts, the results for `Cc1cccc(C2CCCCN2C(=O)NC(C)Cn2cncn2)c1C` (stereo not given) are -5% and 0.64.
On the same counts, the results for `CO[C@H]1C[C@H]2CN(C(=O)NCCc3ccccc3)CC(=O)N2C1` are 2% and -0.3.
With `O=C(C[C@H]1CCCCNC1=O)NCc1ccccc1O`, the “% Inhibition” value is given as 3% and the Z score is recorded as -0.52.
Consider `CC(C)Cn1ccnc1CCN1C(=O)c2ccccc2C1=O`, for which the “% Inhibition” value was 0% and the Z score is on record as -0.1.
With `Cc1ccc(N[C@H]2CC3=C(CC2(C)C)C(C)(C)CCC3)cc1`, the “% Inhibition” value is on record as -3% and the Z score came out at 0.67.
